# Data from the supplement of paper PMC3334620.
# In all, about 33,000 sequences were measured (“E-score (-0.5 to 0.5)”: median about -0.04, highest 2% from about 0.36 on). This is one part of the list.
# Target: T1, Hmlalpha2 (UniProt P0CY09)
# T1 sequence: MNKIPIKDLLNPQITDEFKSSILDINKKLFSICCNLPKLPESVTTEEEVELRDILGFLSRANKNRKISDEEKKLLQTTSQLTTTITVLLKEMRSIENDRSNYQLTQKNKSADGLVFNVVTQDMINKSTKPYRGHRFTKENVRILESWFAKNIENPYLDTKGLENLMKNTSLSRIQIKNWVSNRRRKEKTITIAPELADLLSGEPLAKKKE
# Assay: PBM E-score (8-mer binding enrichment) (E-score (-0.5 to 0.5)); higher = stronger / more preferred TF binding; most listed sequences are background and not binding sites
# Conditions: protein concentration: 200 nM; construct: GST-full length
# Procedure, shortened: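 Detection of bound protein used fluorescent anti-GST, with scans normalised by masliner. The proteins were GST-tagged yeast transcription factors applied at about 100-200 nM to universal all-10-mer Agilent arrays made double-stranded by primer extension. Each ungapped eight-base word, pooled with its reverse complement, was scored with an E-score from the Universal PBM Analysis Suite.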
row,Sequence,PBM E-score
1,GCCAGACC,-0.278
2,CTACGGAG,-0.247
3,CGGGATAG,-0.302
4,CAAGCTAC,0.103
5,AGGGCTTG,0.168
6,ATGCGCCC,-0.0558
7,AGCTGGAG,-0.147
8,ATCGTTTA,0.218
9,CGTTGGGA,-0.0124
10,ATGAAGGG,-0.201
11,GACAGTAA,0.0134
12,TGAATAAA,0.245
13,ACAATTCC,-0.00895
14,ACAACGAA,0.129
15,ACCACTGG,-0.0198
16,CGCCGAAG,-0.238
17,ACTGCAAT,0.00745
18,GCCCAGGC,-0.262
19,AGCAGCAG,-0.0472
20,GACGCGCC,0.0148
21,ACTCGCGA,-0.0234
22,CGACCACA,-0.00786
23,GTGGTATA,0.0843
24,CAAAATGA,0.0816
25,ATTATGGC,0.013

row,Sequence,PBM E-score
1,AACATAAT,0.287
2,CCTTATCC,-0.281
3,ACGAGCAA,-0.105
4,CCCCCTGA,-0.222
5,AGGGGGCA,-0.275
6,AAGAAACT,0.0109
7,CGATCCCA,-0.262
8,ATCTGTTA,0.23
9,AGATCCTC,-0.235
10,CAATTTTC,-0.114
11,CTATCGTA,0.162
12,ACCATGAG,-0.24
13,CAATGAAC,-0.00588
14,ACACCACG,0.0675
15,AGAGCTGC,-0.16
16,GATAATCC,-0.0865
17,AGTATAGC,-0.0549
18,CCTGCACG,0.134
19,AAGGTAGC,-0.0625
20,ATGCTACA,0.173
21,CTATTGAC,-0.0398
22,CGTAAGAA,0.106
23,ATAAGCCA,0.0197
24,CGCCCACA,-0.0652
25,ACAGGTGG,-0.0993

row,Sequence,PBM E-score
1,AGCGTTCG,-0.167
2,ATAGGGCG,-0.23
3,TAAAGGAA,0.132
4,CGTAGACC,-0.105
5,AGTGCGTC,-0.188
6,CGCGTACA,0.336
7,GACCATAA,-0.116
8,AACCACGC,0.0619
9,ACAGTTAC,0.225
10,CTATGGTA,-0.144
11,CGGTCGGA,-0.0802
12,ACAATATC,0.12
13,GATTGTCC,-0.116
14,GCTCACGA,-0.244
15,CCGCCGGA,-0.265
16,AACCAAGC,-0.163
17,ATGCGTGA,0.0998
18,ATGCTGTC,0.0562
19,AGGAGCAG,-0.405
20,CATTACTC,0.169
21,GTAATGAA,0.239
22,AAACCATT,0.0007
23,CTCGCCAA,-0.188
24,CCGCATAG,-0.129
25,GCTTAAAC,0.00326

row,Sequence,PBM E-score
1,ATTCCGTA,-0.0358
2,ATCACCGG,-0.202
3,ATTTGGTG,-0.00391
4,ACCATGTA,0.467
5,CCTGAGTC,-0.296
6,GAGAACGC,0.0772
7,ATGTGCCC,-0.161
8,CTAAGGAA,-0.0922
9,GTGAGGCA,-0.132
10,CCCCCTCC,-0.183
11,ACACATGG,0.21
12,AAACTCGA,-0.0667
13,CTGCTCGA,-0.251
14,TAGCCCCA,-0.169
15,ACCATATG,-0.0429
16,AGGTCCAG,0.0616
17,CGCGTGCC,-0.0116
18,CAGAAGAC,-0.0688
19,CTTTGCTA,0.0447
20,CGCCGTAA,-0.0307
21,GCGTTTAC,0.203
22,AAGTCCCT,-0.199
23,TCCCCTCA,-0.0445
24,GGAGAAGA,-0.299
25,AGGCAGGG,-0.241

row,Sequence,PBM E-score
1,AGGAGAGG,-0.277
2,CAGCGAGC,0.12
3,ATAGGAAT,-0.0828
4,GAAGCCCC,-0.238
5,GAAATACC,-0.0406
6,CAGCATGG,0.0718
7,CTTCATGA,-0.0603
8,ATATGACC,-0.0326
9,GAACGCTC,-0.299
10,AGCCCGCC,-0.307
11,AGCAATCA,-0.102
12,ACGCACCC,0.117
13,CTACGTTC,0.0712
14,ATCAGAAT,0.00161
15,CTCTGTAC,-0.00455
16,GTCTCCAA,0.0994
17,CCGACGTA,0.0748
18,CCTCCTAC,-0.116
19,GTACTAAA,0.216
20,CACACCCA,0.0204
21,ACACTAAC,0.144
22,ACTAGTGC,-0.0536
23,ATTTTTGG,-0.217
24,CGATAGAC,0.0431
25,ATCGCCCC,-0.203

row,Sequence,PBM E-score
1,CTTACTAC,0.165
2,CAGGACTG,-0.209
3,GGAGGGAC,-0.198
4,CCCCGGAC,-0.131
5,CACCCGGA,-0.0881
6,CCACTCAG,-0.171
7,CTTACAGC,0.0599
8,CAACGGAG,-0.12
9,AGTAAACA,0.337
10,AGGCCTCA,-0.254
11,CAAGAAGC,0.101
12,GTCGTCTA,0.0409
13,TCCCTCGA,-0.23
14,CGAACGCG,0.106
15,GCAACTAA,0.096
16,CGTTTCGC,-0.0298
17,AGGGGACT,-0.159
18,GTGCGCAA,-0.0816
19,GAGTTAGC,0.0731
20,ACCTTTGG,-0.356
21,CGTCGTGA,-0.161
22,ACTAACGA,0.205
23,CCTTCATA,0.0271
24,GCCCCGCC,-0.105
25,ATATCCAA,0.0283

row,Sequence,PBM E-score
1,CCTAAACA,0.138
2,CCGAGCGC,-0.131
3,TAGTCTAA,-0.0138
4,AATTGTTC,0.201
5,TTCTCCAA,-0.122
6,CGCTAACG,0.119
7,GCAAGGCC,-0.216
8,AATCGATC,-0.0618
9,GCAAGTAC,0.262
10,AAGACAAG,0.202
11,GAAAGGGC,-0.0149
12,CGTGGGTA,-0.0765
13,CTTGTCAC,0.0592
14,CTGAGTCC,-0.185
15,AGCATGAC,-0.00117
16,AGATGTGG,-0.0661
17,CACACTGA,-0.00782
18,ATATAGGG,-0.211
19,GTCGCCCA,-0.125
20,GTGATGTA,0.382
21,GGGAGACC,-0.315
22,AACCCGCC,-0.103
